Experimental data from patent US12583836B2 (Anaxis Pharma Pty Ltd, priority 2020, dated 2026).
Read-outs that look alike come from different tables or passages of the source.

How the values were obtained:
[1] = tested on: U937 human histiocytic leukemia cell line; assay: Inhibition of TSQ induced necroptosis, 384 well plate format (CellTitre-Glo); conditions: U937 cells, TSQ cocktail (TNF, Smac mimetic, Q-VD-OPh), CelltiterGlo, read-out: Inhibition of TSQ-induced necroptosis (IC50 cell-based assay)
Experimental: […] ASSAY: Screening compounds for inhibition of TSQ induced necroptosis, 384 well plate format.
Cell Line ID: U937 human histiocytic leukemia cell line.
Cell Concentration (cells/well): Final cell density is 20000 cells per well.
Cell growth medium: HT-RPMI medium+7.4% Fetal Bovine Serum (FBS). Cells are cultured in Corning 150 cm^2 tissue culture flasks with vented caps at 37° C./5% CO2.
Incubation: Plates were incubated at 37° C./5% CO2 in a humidified incubator for 48 hours following addition of compounds and death stimuli (TSQ cocktail).
Compound concentration: 36 μM starting concentration, 1:3 dilution, 10 point
DMSO final concentration (% v/v): 0.3%.
Compounds in TSQ cocktail (T: TNF; S: Smac mimetic; Q: Q-VD-OPh) and their final concentrations:
hTNF-Fc (100 ng/ml)—produced by standard procedures as shown in Bossen et al., J Biol Chem, 2006, 281(20), 13964-13971.
Compound A (500 nM)—Smac mimetic, Tetralogic and SYNthesis med chem
Q-VD-OPh (10 μM)—MP Biomedicals
The cellular assay was carried out according to the following steps: • 1. Each well was prepared by sequential addition of: • a. DMSO (control; columns 1-2 and 23-24) or compound in DMSO—addition was performed using acoustic transfer of nl volumes of stock compound to give final test concentrations of 36, 12, 4, 1.3, 0.44, 0.148, 0.049, 0.016, 0.005 and 0.002 μM. All wells were backfilled with DMSO to a final total volume in the well of 100 nl. • b. Following compound/DMSO addition in step (a), 40 μL of cell suspension (5×10^5 cells/mL) was added to provide a final cell concentration of 20,000 cells per well, and • c. Following cell addition in step (b), 10 μL of 5×TSQ cocktail (except to positive controls; columns 1 and 23) was added to each well. • 2. After 48 hours, plate was removed from the 37° C. incubator and equilibrated to room temperature for 45 minutes. • 3. 15 μL of room temperature CellTitre-Glo2™ (Promega™) was added to each well. • 4. Shook plates for 2 minutes (˜600 rpm) and incubated at room temperature for 15 minutes to allow signal to stabilise. • 5. Read luminescence readout on a plate reader. Analysis:
Percent viability was calculated for each compound according to equation (2):
[formula] • wherein • RawData is the readout of any cell containing a compound of the invention • TA is the total activity provided by the luminescence readout from DMSO only wells (columns 2 and 24)=100% viability • NSA is the non-specific activity provided by DMSO+TSQ wells (columns 1 and 23)=0% viability
Curve fitting: 10-point titration curves are fitted with the 4-parameter logistic nonlinear regression model and the IC50 reported is the inflection point of the curve.
Analysis: Data was loaded into Dotmatics™ and visualised using the Tibco® Spotfire™ software. 10 points titration curves were fitted with the 4-parameter logistic nonlinear regression model and the IC50 reported reflect the inflection point of the curve for curve fitting.
Assay involving the TSQ cocktail (T: TNF; S: Smac mimetic; Q: Q-VD-OPh): TSQ treatment ensures that cells specifically undergo necroptotic cell death. TNF activates the TNF receptor, Smac mimetic directs the signal away from proinflammatory signaling and toward the RIP1/RIP3-mediated cell death pathways, and Q-VD-OPh ensures that the apoptotic response is blocked leaving only the programmed necrosis response. The compounds' activity (solution in DMSO) tested in this TSQ-induced assay was evaluated by determining the number of viable cells in culture by measuring the amount of ATP present as measured by CelltiterGlo.

U937 cells = assay: Counter screen: cell viability without the TSQ cocktail (CelltiterGlo); set-up: species or system human; conditions: read-out: Off-target effect (IC50 cell-based assay)
Experimental: Counter screen: In parallel, all compounds were tested for their ability to affect cell viability. The same U937 cells were treated with compound in DMSO without the TSQ cocktail. This counter screen enabled evaluation of off-target effects. In this case, cell viability was measured by CelltiterGlo.

[2] = Homo sapiens, U-937, cell viability by CelltiterGlo

| Structure (SMILES) | IC50 ([1]; Homo sapiens, U-937) [µM] | IC50 (U937 cells; [2]) [µM] | IC50 [1] [µM] | IC50 (U937 cells; cell viability by CelltiterGlo) [µM] |
| --- | --- | --- | --- | --- |
| C[C@H](Oc1cc(-c2n[nH]c(Nc3cc(C4(C(F)(F)F)CC4)on3)c2C(N)=O)ccc1NS(=O)(=O)C(F)F)c1ccc(F)cc1 [Compound 289, (S)-3-(4-((difluoromethyl)sulfonamido)-3-(1-(4-fluorophenyl)ethoxy)phenyl)-5-((5-(1-(trifluoromethyl)cyclopropyl)isoxazol-3-yl)amino)-1H-pyrazole-4-carboxamide] | < 0.01 | > 30 | – | – |
| CCS(=O)(=O)Nc1ccc(-c2n[nH]c(Nc3cnccn3)c2C(N)=O)cc1OCCc1ccc(F)cc1 [Compound 24] | 1 to 30 | > 30 | – | – |
| C[C@H](Oc1cc(-c2n[nH]c(Nc3cnccn3)c2C(N)=O)ccc1NS(=O)(=O)C(F)F)c1ccc(Cl)cc1 [Compound 252, 3-{3-[(1S)-1-(4-chlorophenyl)ethoxy]-4-(difluoromethanesulfonamido)phenyl}-5-[(pyrazin-2-yl)amino]-1H-pyrazole-4-carboxamide] | 1 to 30 | > 30 | – | – |
| Cc1cc(Nc2[nH]nc(-c3ccc(NS(=O)(=O)CC(F)(F)F)c(O[C@@H](C)c4ccc(F)cc4)c3)c2C(N)=O)no1 [Compound 311, (S)-3-(3-(1-(4-fluorophenyl)ethoxy)-4-((2,2,2-trifluoroethyl)sulfonamido)phenyl)-5-((5-methylisoxazol-3-yl)amino)-1H-pyrazole-4-carboxamide] | 1 to 30 | > 30 | – | – |
| C[C@H](Oc1cc(-c2n[nH]c(Nc3ccc(C4CCOCC4)cn3)c2C(N)=O)ccc1NS(=O)(=O)C(F)F)c1ccc(F)cc1 [Compound 278, (S)-3-(4-((difluoromethyl)sulfonamido)-3-(1-(4-fluorophenyl)ethoxy)phenyl)-5-((5-(tetrahydro-2H-pyran-4-yl)pyridin-2-yl)amino)-1H-pyrazole-4-carboxamide] | < 0.01 | > 30 | – | – |
| C[C@H](Oc1cc(-c2n[nH]c(Nc3cnc(C(C)(C)C)cn3)c2C(N)=O)ccc1NS(=O)(=O)C(F)F)c1ccc(F)cc1 [Compound 312, (S)-5-((5-(tert-butyl)pyrazin-2-yl)amino)-3-(4-((difluoromethyl)sulfonamido)-3-(1-(4-fluorophenyl)ethoxy)phenyl)-1H-pyrazole-4-carboxamide] | < 0.01 | > 30 | – | – |
| COc1cnc(Nc2[nH]nc(-c3ccc(NS(=O)(=O)CC(F)(F)F)c(OCc4ccc(Cl)cc4)c3)c2C(N)=O)cn1 [Compound 157, 3-(3-((4-chlorobenzyl)oxy)-4-((2,2,2-trifluoroethyl)sulfonamido)phenyl)-5-((5-methoxypyrazin-2-yl)amino)-1H-pyrazole-4-carboxamide] | 0.01 to 1 | > 30 | – | – |
| COCC(Oc1cc(-c2n[nH]c(Nc3cnccn3)c2C(N)=O)ccc1NS(=O)(=O)C(F)F)c1ccc(F)cc1 (centres unmarked) [Compound 319, 3-(4-((difluoromethyl)sulfonamido)-3-(1-(4-fluorophenyl)-2-methoxyethoxy)phenyl)-5-(pyrazin-2-ylamino)-1H-pyrazole-4-carboxamide] | 0.01 to 1 | > 30 | – | – |
| C[C@H](Oc1cc(-c2n[nH]c(Nc3ncn(C)n3)c2C(N)=O)ccc1NS(=O)(=O)C(F)F)c1ccc(F)cc1 [Compound 283, (S)-3-(4-((difluoromethyl)sulfonamido)-3-(1-(4-fluorophenyl)ethoxy)phenyl)-5-((1-methyl-1H-1,2,4-triazol-3-yl)amino)-1H-pyrazole-4-carboxamide] | 0.01 to 1 | > 30 | – | – |
| NC(=O)c1c(-c2ccc(NS(=O)(=O)C(F)F)c(OCc3ccc(F)cc3)c2)n[nH]c1Nc1cnc(C(F)(F)F)cn1 [Compound 246, 3-[4-(difluoromethanesulfonamido)-3-[(4-fluorophenyl)methoxy]phenyl]-5-{[5-(trifluoromethyl)pyrazin-2-yl]amino}-1H-pyrazole-4-carboxamide] | 0.01 to 1 | > 30 | – | – |
| C[C@H](Oc1cc(-c2c(C(N)=O)c(Nc3cnccn3)nn2C)ccc1NS(=O)(=O)C(F)F)c1ccc(F)cc1 [Compound 253, 5-[4-(difluoromethanesulfonamido)-3-[(1S)-1-(4-fluorophenyl)ethoxy]phenyl]-1-methyl-3-[(pyrazin-2-yl)amino]-1H-pyrazole-4-carboxamide] | 1 to 30 | > 30 | – | – |
| Cc1cc(Nc2c(C(N)=O)c(-c3ccc(NS(=O)(=O)C(F)F)c(O[C@@H](C)c4ccc(F)cc4)c3)nn2C)no1 [Compound 320, (S)-3-(4-((difluoromethyl)sulfonamido)-3-(1-(4-fluorophenyl)ethoxy)phenyl)-1-methyl-5-((5-methylisoxazol-3-yl)amino)-1H-pyrazole-4-carboxamide] | < 0.01 | > 30 | – | – |
| NC(=O)c1c(-c2ccc(NS(=O)(=O)CC(F)(F)F)c(OCc3ccc(Cl)c(F)c3)c2)n[nH]c1Nc1cnccn1 [Compound 165, 3-(3-((4-chloro-3-fluorobenzyl)oxy)-4-((2,2,2-trifluoroethyl)sulfonamido)phenyl)-5-(pyrazin-2-ylamino)-1H-pyrazole-4-carboxamide] | < 0.01 | > 30 | – | – |
| NC(=O)c1c(-c2ccc(NS(=O)(=O)CC(F)(F)F)c(OCc3ccc(F)c(F)c3)c2)n[nH]c1Nc1ccccn1 [Compound 160, 3-(3-((3,4-difluorobenzyl)oxy)-4-((2,2,2-trifluoroethyl)sulfonamido)phenyl)-5-(pyridine-2-ylamino)-1H-pyrazole-4-carboxamide] | 1 to 30 | > 30 | – | – |
| C[C@H](Oc1cc(-c2n[nH]c(Nc3cnccn3)c2C(N)=O)ccc1NS(=O)(=O)CC(F)(F)F)c1cccc(F)c1 [Compound 265] | – | – | 1 to 30 | > 30 |
| CCS(=O)(=O)Nc1ccc(-c2n[nH]c(Nc3cnccn3)c2C(N)=O)cc1OCc1ccc(F)cn1 [Compound 156, 3-(4-(ethylsulfonamido)-3-((5-fluoropyridin-2-yl)methoxy)phenyl)-5-(pyrazin-2-ylamino)-1H-pyrazole-4-carboxamide] | 1 to 30 | > 30 | – | – |
| CCS(=O)(=O)Nc1ccc(-c2n[nH]c(Nc3cnccn3)c2C(N)=O)cc1OCc1ccc(F)cc1 [Compound 62, 3-(4-(ethylsulfonamido)-3-((4-fluorobenzyl)oxy)phenyl) 5-(pyrazin-2-ylamino)-1H pyrazole-4-carboxamide] | 0.01 to 1 | > 30 | – | – |
| C[C@H](Oc1cc(-c2n[nH]c(Nc3cc(C(C)(C)C)no3)c2C(N)=O)ccc1NS(=O)(=O)C(F)F)c1ccc(F)cc1 [Compound 295, (S)-5-((3-(tert-butyl)isoxazol-5-yl)amino)-3-(4-((difluoromethyl)sulfonamido)-3-(1-(4-fluorophenyl)ethoxy)phenyl)-1H-pyrazole-4-carboxamide] | 0.01 to 1 | > 30 | – | – |
| C[C@H](Oc1cc(-c2n[nH]c(Nc3cc(C4CCOC4)on3)c2C(N)=O)ccc1NS(=O)(=O)C(F)F)c1ccc(F)cc1 (stereo partly drawn) [Compound 305, 3-(4-((difluoromethyl)sulfonamido)-3-((S)-1-(4-fluorophenyl)ethoxy)phenyl)-5-((5-(tetrahydrofuran-3-yl)isoxazol-3-yl)amino)-1H-pyrazole-4-carboxamide] | 0.01 to 1 | > 30 | – | – |
